Laboratory results as given in PubChem BioAssay AID504374 (National Center for Advancing Translational Sciences (NCATS), 2011).
In all, about 1,500 compounds went through this assay and about 100 (6.7%) were called active. The inconclusive results got no clear call from the source; some entries with a clear call stand among them for comparison. Calls follow the shape of the dose curve; as a rule, active = well fitted inhibition curve with a large enough effect; inconclusive = small, poorly fitted or top-dose-only effect, or effect the other way; inactive = flat fitted curve, though single readings scatter. No potency is given beside an inconclusive call; the fits are too rough.

biological target: Runt-related transcription factor 1 (Homo sapiens) + Core-binding factor subunit beta (Homo sapiens) (UniProt Q01196+Q13951); test: qHTS Assay for Compounds Blocking the Interaction Between CBF-beta and RUNX1 for the Treatment of Acute Myeloid Leukemia: Hit Validation; conditions: AlphaScreen CBFb-His/RUNX1-biotin binding; series mostly up to 59.8 µM; activity, negative = inhibition: at the top concentration; also: nearly all actives have a fitted effect of over 60% in size
From the text: NIH Chemical Genomics Center [NCGC]
NIH Molecular Libraries Probe Production centers Network [MLPCN]
Assay Submitter (PI): Paul Liu
Core Binding Factor (CBF) abnormalities are associated with 20-25% of all acute myeloid leukemias (AML), of which 5-10% are further sub classified as acute myelomonocytic leukemia with eosinophilia, also known as M4Eo in the FAB classification scheme. This subtype of leukemia is usually associated with chromosome 16 inversion (p13:q22). Chromosome 16 inversion results in formation of the fusion oncogene CBFB-MYH11, which encodes the fusion protein CBF-beta-SMMHC.
It has been hypothesized that the interference of CBF-beta and RUNX1 binding could have therapeutic implications for patients with CBF mediated leukemias. We developed a CBF-beta and RUNX1 binding assay in AlphaScreenTM format and optimized it for high throughput screening to search for inhibitors. The goal of this project is to screen MLPCN's compound collection (MLSMR) for identifying the inhibitors of the interaction between CBF-beta and RUNX1 proteins as research probes. If these probes work well in the animal models, the ultimate goal of this project is to development a new drug treatment for this disease.
This assay can not be used to assess how apparent inhibitors interfere with protein binding, and whether inhibitors specifically bind to either protein. Disruption of this protein-protein interaction, through any mechanism, is the intended target activity.
The present data set was run to confirm the activity of hits from the primary screen.
NCGC Assay Protocol Summary:
Step, Parameter, Description
(1) Reagent, 3 uL CBFb-His/RUNX1-biotin mix incubated together for 20 minutes at room temperature (30 nM each)
(2) Compound or control, 23 nL compound stock solution
(3) Incubation, 15 minutes at Room temperature
(4) Reagent, 1 uL 50 ng each of beads (Nickel beads and streptavidin beads)
(5) Incubation, 90 minutes at Room temperature
(6) Detection, Excitation=365 nm Emission=440 nm, Envision reader in AlphaScreenTM mode
Keywords: MLSMR, MLPCN, NIH Roadmap, qHTS, NCGC, Core binding factor, CBF, CBF-beta, Acute myeloid leukemia
% is scaled to controls: 0 for no effect and ±100 for the full control effect; potency is read from the fitted curve at half-maximal effect; tags tell the direction and shape of the fitted curve.

Chain of UniProt Q01196 (Q01196 whole entry, looked up): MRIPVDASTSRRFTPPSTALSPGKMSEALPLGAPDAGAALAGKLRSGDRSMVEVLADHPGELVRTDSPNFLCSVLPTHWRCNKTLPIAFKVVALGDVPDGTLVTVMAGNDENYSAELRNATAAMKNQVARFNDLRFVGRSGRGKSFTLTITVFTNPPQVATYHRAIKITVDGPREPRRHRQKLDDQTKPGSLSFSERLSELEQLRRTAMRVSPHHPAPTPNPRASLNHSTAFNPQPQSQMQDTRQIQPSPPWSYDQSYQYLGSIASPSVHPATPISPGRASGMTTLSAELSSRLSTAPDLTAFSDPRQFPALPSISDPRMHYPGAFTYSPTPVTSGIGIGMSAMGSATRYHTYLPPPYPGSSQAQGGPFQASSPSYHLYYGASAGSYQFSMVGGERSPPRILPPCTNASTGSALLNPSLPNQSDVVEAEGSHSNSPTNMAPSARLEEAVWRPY
Chain of UniProt Q01196 (Q13951 whole entry, looked up): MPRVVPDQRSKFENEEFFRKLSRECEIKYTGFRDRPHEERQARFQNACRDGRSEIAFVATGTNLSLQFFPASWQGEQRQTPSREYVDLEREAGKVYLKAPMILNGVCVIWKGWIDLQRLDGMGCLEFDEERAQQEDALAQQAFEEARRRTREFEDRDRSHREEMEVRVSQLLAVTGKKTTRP

Row | Compound | activity, negative = inhibition | Potency
1 | Cc1ccc(NC(=O)CSc2n[nH]c(N)n2)cc1S(=O)(=O)N1CCOCC1 | inactive: -1.46% | 
2 | COc1ccc(NC(=O)CCC(=O)N/N=C/c2ccncc2)cc1 | inactive: 4.92% | 
3 | CCNC(=O)NC(=O)c1csc([N+](=O)[O-])c1 | inactive: -0.4% | 
4 | CC(=O)Oc1ccc(C(=O)[C@H]2[C@H]3C(=O)N(c4ccc(C)cc4C)C(=O)[C@H]3[C@@H]3C=CC=NN32)cc1 |  | inconclusive [inhibitor, single point]
5 | C=C1c2cccc(O)c2C(O)=C2C(=O)[C@@]3(O)C(O)=C(C(N)=O)C(=O)[C@@H](N(C)C)[C@@H]3[C@@H](O)[C@H]12 |  | inconclusive [inhibitor, partial curve]
6 | O=Cc1ccc(O)c2ncccc12 |  | inconclusive [inhibitor, full curve, poor fit]
7 | Nc1c(C(=O)N/N=C/c2cccnc2)oc2nc(-c3ccco3)cc(-c3ccco3)c12 |  | inconclusive [inhibitor, partial curve, poor fit]
8 | Cc1ccccc1Nc1ncc(C#N)c(N)n1 | inactive: -0.858% | 
9 | Nc1ccc(Oc2ccccc2F)nc1 |  | inconclusive [inhibitor, partial curve, poor fit]
10 | O=C(NCCc1ccccc1)c1cccc(Br)n1 |  | inconclusive [activator, partial curve]
11 | Cc1ccc(Nc2ccccc2)nn1 |  | inconclusive [inhibitor, single point]
12 | O=C1C(CCC(O)c2ccc(F)cc2)C(c2ccc(O)cc2)N1c1ccc(F)cc1 (configuration not stated) |  | active: 15.8 µM
13 | Cc1c(C(=O)/C=C/N(C)C)nnn1-c1ccc(Cl)c(Cl)c1 | inactive: 4.52% | 
14 | COc1cccc(/C=N/Nc2nc3ccccc3[nH]2)c1O |  | inconclusive [inhibitor, partial curve, poor fit]
15 | CCN1C/C(=C/c2cccs2)c2nc3ccccc3c(C(=O)O)c2C1 |  | inconclusive [inhibitor, partial curve, poor fit]
16 | CN(C)CCc1c[nH]c2ccc(CC3COC(=O)N3)cc12 (configuration not stated) |  | inconclusive [inhibitor, partial curve, poor fit]
17 | CC/C(=C(\c1ccccc1)c1ccc(OCCN(C)C)cc1)c1ccccc1 |  | active: 24.4 µM
18 | Cn1c(=O)c2cc3ccccc3nc2n(C)c1=O | inactive: 0.436% | 
19 | O=C(O)c1cccnc1C(=O)O |  | active: 14.1 µM
20 | Cc1ccc(C2=NOC(=O)/C2=C\c2ccc(C)o2)cc1 |  | inconclusive [inhibitor, partial curve, poor fit]
21 | Cc1cc([N+](=O)[O-])nn1CC(=O)N/N=C/c1ccccc1O |  | inconclusive [inhibitor, partial curve, poor fit]
22 | CCC12CCCN3CCc4c(n(c5ccccc45)C(O)(C(=O)OC)C1)C32 (configuration not stated) |  | inconclusive [inhibitor, single point]
23 | S=C(NCc1ccco1)N1CCOCC1 |  | inconclusive [inhibitor, partial curve]
24 | CN(C)c1ccc(C2CC(=O)C=C(Nc3ccccc3N)C2)cc1 (configuration not stated) |  | inconclusive [inhibitor, single point]

Row | Compound | activity, negative = inhibition | Potency
25 | O=C(O)c1ccccc1N/N=C/C1=C(N2CCOCC2)C(=C\c2ccccc2)/CC1 |  | inconclusive [inhibitor, partial curve]
26 | O=C(/C=C/c1ccccc1)c1c[nH]c2ccccc12 | inactive: -1.47% | 
27 | Cc1ccnn1CC(=O)N/N=C/c1ccc([N+](=O)[O-])s1 |  | inconclusive [inhibitor, full curve, poor fit]
28 | COc1ccc(-c2csc(N)n2)cc1 |  | inconclusive [inhibitor, full curve]
29 | COc1cc(NC2CCCCC2O)c2nc(-c3ccc(Cl)cc3)ccc2c1 (configuration not stated) |  | inconclusive [inhibitor, single point]
30 | NC(Cc1ccc(O)c(O)c1)C(=O)O (configuration not stated) |  | active: 1.12 µM
31 | CCc1ccccc1NC(=S)N(CCN(C)C)C(C)c1ccccn1 (configuration not stated) |  | active: 6.12 µM
32 | CN(C)c1ccc(NC(=O)Nc2csc3ccccc23)cc1 |  | inconclusive [inhibitor, single point]
33 | Cc1c2c(c(O)c3c(O)cccc13)C(=O)O[C@H]2C1C(N(C)C)C(O)=C(C(N)=O)C(=O)[C@H]1O (some centres not stated) |  | active: 0.631 µM
34 | CN(C)c1cc(-c2ccc(Cl)cc2Cl)oc(=O)c1Cl |  | inconclusive [inhibitor, partial curve, poor fit]
35 | CC(C)(C)OC(=O)N1CCCN(C(=O)Nc2ccccc2)CC1 | inactive: 0.141% | 
36 | O=C(N/N=C/c1ccco1)c1cc(C2CC2)[nH]n1 | inactive: -3.94% | 
37 | Nc1nc(-c2ccccc2)c(N=Nc2cccnc2)s1 |  | inconclusive [inhibitor, full curve]
38 | O=[N+]([O-])c1c(NCc2ccco2)ccc2nonc12 |  | inconclusive [inhibitor, full curve, poor fit]
39 | CCCCNc1ccc2c3c(cccc13)C(=O)N(CCCC)C2=O |  | inconclusive [activator, full curve]
40 | CCC1(C(=O)OC)CCc2c(cc(OC)c3ccccc23)C1=O (configuration not stated) |  | inconclusive [activator, full curve, poor fit]
41 | O=C1c2cccc(Sc3ccccc3)c2C(=O)c2c(Sc3ccccc3)cccc21 |  | inconclusive [inhibitor, partial curve, poor fit]
42 | NC(=O)N(CCC(=O)O)c1ccccc1 |  | inconclusive [inhibitor, partial curve]
43 | S=c1[nH]nc(-c2ccccn2)n1/N=C/c1ccco1 |  | inconclusive [inhibitor, partial curve, poor fit]
44 | COC(=O)[C@H](C)NC(=O)NCc1ccccc1 | inactive: -3.2% | 
45 | Nc1nc(-c2ccc3c(c2)NC(=O)CO3)cs1 |  | inconclusive [inhibitor, full curve, poor fit]
46 | O=C(N/N=C/c1cccc2nccnc12)c1ccncc1 |  | inconclusive [inhibitor, partial curve, poor fit]
47 | COc1ccc(-n2c(=S)[nH]c(=O)c3cccnc32)cc1 | inactive: -1.85% | 
48 | COC(=O)c1cccnc1Oc1ccccc1 | inactive: -13.6% | 

Row | Compound | activity, negative = inhibition | Potency
49 | C=CCn1c(SCc2ccccc2Cl)nnc1-c1sc2nc(C)cc(C)c2c1N | inactive: 10.9% | 
50 | Cn1c(=O)c2c(Nc3ccc(F)cc3)cc(=O)n(-c3ccccc3)c2n(C)c1=O | inactive: -4.15% | 
51 | NS(=O)(=O)c1ccc(N/N=C/c2ccc(O)c(O)c2O)c([N+](=O)[O-])c1 |  | inconclusive [inhibitor, partial curve, poor fit]
52 | O=[N+]([O-])c1cc(Cl)cc(/C=N/NC(=S)Nc2ccc(S(=O)(=O)N3CCOCC3)cc2)c1O |  | inconclusive [inhibitor, partial curve, poor fit]
53 | CCOC(=O)N1CCN(CC(=O)Nc2sc(CC)cc2C(=O)c2ccc(OC)cc2)CC1 | inactive: -13.8% | 
54 | CC(=O)c1ccc(S(=O)(=O)N2Cc3ccccc3CC2C(=O)O)cc1 (configuration not stated) |  | inconclusive [inhibitor, single point]
55 | CSCC[C@H](NC(=O)OC(C)(C)C)C(=O)N/N=C/c1cccc2nccnc12 |  | inconclusive [inhibitor, single point]
56 | COc1ccc2c(c1)-c1nc(N)sc1CC2 |  | inconclusive [inhibitor, partial curve]
57 | C(=N\N1CCN(c2ccccn2)CC1)/c1cccc2ccccc12 |  | inconclusive [inhibitor, partial curve]
58 | COc1ccc(/C(C)=N/NC(=O)Cn2nc([N+](=O)[O-])cc2C)cc1 | inactive: -7.96% | 
59 | CC(C)(c1cc(Br)c(O)c(Br)c1)c1cc(Br)c(O)c(Br)c1 |  | inconclusive [inhibitor, partial curve]
60 | CC(C)Cn1nc(NC(=O)c2cccs2)c2cc3ccccc3nc21 |  | inconclusive [activator, partial curve]
61 | N#C/C(=C/c1ccco1)C(N)=S |  | inconclusive [inhibitor, partial curve, poor fit]
62 | O=C(c1ccccc1)c1ccc2c(c1)OCCCO2 | inactive: 6.09% | 
63 | CO/N=C1\CN(c2nc3c(cc2F)c(=O)c(C(=O)O)cn3C2CC2)CC1CN (configuration not stated) |  | inconclusive [inhibitor, partial curve, poor fit]
64 | COc1cc(C(=S)NCc2ccccc2)cc(Br)c1O |  | inconclusive [inhibitor, full curve, poor fit]
65 | CCN(CC)c1ccc(/C=N/N2CCN(Cc3ccccc3Cl)CC2)c(O)c1 |  | inconclusive [inhibitor, single point]
66 | O=C(NC(=S)NNC(=O)c1ccccc1O)c1ccco1 |  | active: 1.26 µM
67 | O=C(Nc1nnc(C2CC2)s1)c1cccnc1Oc1ccc(Cl)cc1 |  | inconclusive [inhibitor, single point]
68 | O=C(O)c1ccccc1N/N=C/c1cc(Br)cc(Br)c1O | inactive: 2.07% | 
69 | CCOc1ccc(NC(=O)Nc2cc(C(C)C)c(O)cc2C)cc1 | inactive: -2.87% | 
70 | S=c1[nH]nc(-c2ccccc2Cl)n1/N=C/C=C/c1ccco1 |  | inconclusive [inhibitor, partial curve, poor fit]
71 | Brc1csc2ncccc12 |  | inconclusive [inhibitor, partial curve, poor fit]
72 | CCN(CC)c1ccc(/C=N/NC(=O)c2ccco2)c(O)c1 |  | active: 31.6 µM
